# From the supplement of paper PMC8728848
# The other results are listed elsewhere or left out.
# B1: Epa1-NP (Candida glabrata), Q6VBJ0 (protein)
# chain: MILNPALFLNKCVCIYTTLILLLLTNGGYATSSNDISLASKDPTTFPLGCSPDITTPKKGLSMELYSYDFRKKGSYPCWDAAYLDPNYPRTGYKSHRLLAKVDGVTGNINFYYHATKGCTPQLGHLPASYNYPKPLTMTNFTMLLYGYFRPKVTGFHTFTISADDLLFVNFGAGNAFDCCRRDSSADHFGNYQAYAIWGSKTAKDELTVHLDAGVYYPIRLFYNNREYDGALSFTFKTESNENTVSDFSEYFFSLDDTEEGCPGLISYDSSCASVKTSKIIGIDYHTETPNENLVPITKTIYHLGIPCTGTTTTPLCGSGFYDPLANKCVTINTSSTSSVTKTTSHTTSKEVSFHSSISSQKTLIPKSIPSPYGPIKSQSIPTEMETSSEISSSEYAFSDVISTPSHSPYTKKHSSLNSSSYTSTVIHSLTSYSISQGIFSTSLSEQNITSKSSTDKFSTATSMSNNITQSSIIISQFSTNNENYTTTSMHTSSDKISTETLNNSISTTTSILFSNSSTILKNNTTIISSDKDTHYHPVNPTIVCSTNKTEIICASITQPSISNSNNHWSSSVLKFNSTTVRSTLPSSAGSNETSINVPFSSSTESNTSTSSTSTSNSKMVRSTLPSSAGSNETSISVPFSSSTESNTSTSSTSTSNSKMVRSTLPSSAGSNETSINVPFSSSTESNTSTSSTSTSNSKTVRSTPFSSAGIIMTSLSQRNNKSASSYASSNSKCYNTADSCRKVHSTPSYLLTSSYTSEGVDYDCSLVSTKLKINDTNCVNNKHTTKSCLKTSVTTTIPTLEIKTARKSSSNTIGLHSYPTSSPNKSISSAPIIGYISSFKTIKTASPSYQTSDLTTITTITSLNNPGSTAVENTHESNDKSRKTSSNDISSKHSVIKETKDAVESSNKSHQTNTLKCSSIIIASSSHNSYESLGGTTLTLTLSKVYSPQNNDTLPFLEISEVNPSRTVLPESSKMMQYLTSTEERNKTARNTIATNIVSISTFHFEGEGNAIRMGYTQLLLMLIGIIVMNIGT
# Tests used:
# Test in all cases: glycan array binding signal (z-score within array); higher = stronger binding
# Conditions in all cases: glycan notation: IUPAC condensed, linker removed
# [1] = target: Fuc(a1-3)[GalNAc(b1-4)]Gal(b1-4)GlcNAc
# Method in brief: (§1)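 The binding signal is a Z-score computed within each array. Data were drawn from 3228 arrays in the Consortium for Functional Glycomics database, restricted to those with a known protein sequence. Scores were averaged over arrays of the same protein sequence at different concentrations or buffers, and over linkers, and negative values can be taken as non-binding.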
# [2] = target: Fuc(a1-3)[GalNAc(b1-4)]GlcNAc
# Method in brief: as §1
# [3] = target: Fuc(a1-3)[GalNAc(b1-4)]GlcNAc6S
# Method in brief: as §1
# Fuc(a1-4)GlcNAc = target: Fuc(a1-4)GlcNAc
# Method in brief: as §1
# Fuc(b1-3)GlcNAc = target: Fuc(b1-3)GlcNAc
# Method in brief: as §1
# Gal(a1-2)Gal = target: Gal(a1-2)Gal
# Method in brief: as §1
# Gal(a1-3)Gal = target: Gal(a1-3)Gal
# Method in brief: as §1
# Gal(a1-3)Gal(b1-3)Glc = target: Gal(a1-3)Gal(b1-3)Glc
# Method in brief: as §1
# Gal(a1-3)Gal(b1-3)GlcNAc = target: Gal(a1-3)Gal(b1-3)GlcNAc
# Method in brief: as §1
# [4] = target: Gal(a1-3)Gal(b1-3)GlcNAc(b1-2)Man
# Method in brief: as §1
# [5] = target: Gal(a1-3)Gal(b1-3)GlcNAc(b1-2)Man(a1-3)[Gal(a1-3)Gal(b1-3)GlcNAc(b1-2)Man(a1-6)]Man(b1-4)GlcNAc(b1-4)GlcNAc
# Method in brief: as §1
# [6] = target: Gal(a1-3)Gal(b1-3)GlcNAc(b1-3)GalNAc
# Method in brief: as §1
# [7] = target: Gal(a1-3)Gal(b1-3)GlcNAc(b1-6)GalNAc
# Method in brief: as §1
# [8] = target: Gal(a1-3)Gal(b1-3)[Fuc(a1-4)]GlcNAc(b1-2)Man(a1-3)[Gal(a1-3)Gal(b1-3)[Fuc(a1-4)]GlcNAc(b1-2)Man(a1-6)]Man(b1-4)GlcNAc(b1-4)GlcNAc
# Method in brief: as §1
# Gal(a1-3)Gal(b1-4)Glc = target: Gal(a1-3)Gal(b1-4)Glc
# Method in brief: as §1
# Gal(a1-3)Gal(b1-4)GlcNAc = target: Gal(a1-3)Gal(b1-4)GlcNAc
# Method in brief: as §1
# [9] = target: Gal(a1-3)Gal(b1-4)GlcNAc(b1-2)Man
# Method in brief: as §1
# [10] = target: Gal(a1-3)Gal(b1-4)GlcNAc(b1-2)Man(a1-3)[Gal(a1-3)Gal(b1-4)GlcNAc(b1-2)Man(a1-6)]Man(b1-4)GlcNAc(b1-4)GlcNAc
# Method in brief: as §1
# [11] = target: Gal(a1-3)Gal(b1-4)GlcNAc(b1-3)GalNAc
# Method in brief: as §1
# [12] = target: Gal(a1-3)Gal(b1-4)GlcNAc(b1-6)GalNAc
# Method in brief: as §1
# [13] = target: Gal(a1-3)Gal(b1-4)[Fuc(a1-3)]GalNAc
# Method in brief: as §1
# [14] = target: Gal(a1-3)Gal(b1-4)[Fuc(a1-3)]GlcNAc
# Method in brief: as §1
# [15] = target: Gal(a1-3)Gal(b1-4)[Fuc(a1-3)]GlcNAc(b1-2)Man(a1-3)[Gal(a1-3)Gal(b1-4)[Fuc(a1-3)]GlcNAc(b1-2)Man(a1-6)]Man(b1-4)GlcNAc(b1-4)GlcNAc
# Method in brief: as §1
# Gal(a1-3)GalNAc = target: Gal(a1-3)GalNAc
# Method in brief: as §1
# Gal(a1-3)GlcNAc = target: Gal(a1-3)GlcNAc
# Method in brief: as §1
# [16] = target: Gal(a1-3)[Gal(a1-4)]Gal(b1-4)GlcNAc
# Method in brief: as §1
# [17] = target: Gal(a1-4)Gal(b1-3)GlcNAc(b1-2)Man(a1-3)[Gal(a1-4)Gal(b1-3)GlcNAc(b1-2)Man(a1-6)]Man(b1-4)GlcNAc(b1-4)GlcNAc
# Method in brief: as §1
# Gal(a1-4)Gal(b1-4)Gal = target: Gal(a1-4)Gal(b1-4)Gal
# Method in brief: as §1
# Gal(a1-4)Gal(b1-4)GalNAc = target: Gal(a1-4)Gal(b1-4)GalNAc
# Method in brief: as §1
# Gal(a1-4)Gal(b1-4)Glc = target: Gal(a1-4)Gal(b1-4)Glc
# Method in brief: as §1
binder,measurement,setting,value
B1,glycan array binding signal (z-score),[1],-0.555
same,glycan array binding signal (z-score),[2],-0.265
same,glycan array binding signal (z-score),[3],-0.286
same,glycan array binding signal (z-score),Fuc(a1-4)GlcNAc,-0.341
same,glycan array binding signal (z-score),Fuc(b1-3)GlcNAc,-0.324
same,glycan array binding signal (z-score),Gal(a1-2)Gal,-0.225
same,glycan array binding signal (z-score),Gal(a1-3)Gal,-0.03
same,glycan array binding signal (z-score),Gal(a1-3)Gal(b1-3)Glc,-0.55
same,glycan array binding signal (z-score),Gal(a1-3)Gal(b1-3)GlcNAc,-0.141
same,glycan array binding signal (z-score),[4],-0.283
same,glycan array binding signal (z-score),[5],-0.164
same,glycan array binding signal (z-score),[6],-0.246
same,glycan array binding signal (z-score),[7],-0.284
same,glycan array binding signal (z-score),[8],-0.276
same,glycan array binding signal (z-score),Gal(a1-3)Gal(b1-4)Glc,-0.258
same,glycan array binding signal (z-score),Gal(a1-3)Gal(b1-4)GlcNAc,0.167
same,glycan array binding signal (z-score),[9],-0.291
same,glycan array binding signal (z-score),[10],-0.281
same,glycan array binding signal (z-score),[11],-0.267
same,glycan array binding signal (z-score),[12],-0.281
same,glycan array binding signal (z-score),[13],0.265
same,glycan array binding signal (z-score),[14],-0.042
same,glycan array binding signal (z-score),[15],-0.174
same,glycan array binding signal (z-score),Gal(a1-3)GalNAc,-0.17
same,glycan array binding signal (z-score),Gal(a1-3)GlcNAc,0.208
same,glycan array binding signal (z-score),[16],-0.168
same,glycan array binding signal (z-score),[17],-0.165
same,glycan array binding signal (z-score),Gal(a1-4)Gal(b1-4)Gal,0.374
same,glycan array binding signal (z-score),Gal(a1-4)Gal(b1-4)GalNAc,1.29
same,glycan array binding signal (z-score),Gal(a1-4)Gal(b1-4)Glc,-0.242
